The structures appear in SMILES notation. The list shows a part of the results.

The assay relates to T1, C. trachomatis L2/434/Bu expressing GFP (CTL2-GFP).
T1 construct: L2/434/Bu GFP intracellular growth in HeLa cells
More on the design: species or system HeLa; C. trachomatis total inclusion area by high-content imaging, normalised to DMSO. As to conditions: total inclusion area; 28.5 h, 10 µM; inhibitor. The method in brief:
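Imaging read-out: GFP inclusions and Hoechst nuclei captured by high-content imaging after fixation. Inclusion area/number = chlamydial growth; nuclei count = host cell viability. MIC calculated per earlier method.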
For `COc1ccc(OCc2nc3ccccc3[nH]2)cc1` [CBK261030], the “% of control remaining” value is 100.973.
For the compound `c1ccc(CN2CC[C@H](c3nc4ncccc4[nH]3)C2)cc1` [CBK289383], the “% of control remaining” value came to 94.2816.
Consider `Cc1cc(/C=C2\NC(=O)NC2=O)c(C)n1-c1ccc(OCc2ccccc2F)cc1` [CBK264842], for which the “% of control remaining” value worked out at 112.009.
The result for `O=C(O)CCC(=O)NCC1(c2ccccc2)CCCC1` [CBK286679] reads 60.8652.
As for `Cc1nc2c(c(=O)[nH]1)CC[C@@H]1CN(C(=O)Cc3ccsc3)C[C@H]21` [CBK284411], the “% of control remaining” value is 63.1536.
The value for `O=C(N/N=C/C=C/c1ccc([N+](=O)[O-])cc1)C(O)c1ccccc1` (stereo not drawn) [CBK261373] was 111.309; that for `CC(C)(c1ccccc1)c1ccc(OCCCCn2cncn2)cc1` [CBK266405] was 74.5977.
On to `Cc1cc(Cl)ccc1NC(=O)CN1CCN(Cc2ccccc2)CC1` [CBK269438], for which the “% of control remaining” value was determined as 45.9458.
The value for `Cn1ccnc1C1(O)CC2CCC(C1)N2C(=O)c1ccc(Cl)cc1` (stereo not drawn) [CBK284087] was 97.8621; that for `O=C(CCCn1ccnc1)NCC1(c2cccc(F)c2)CCCC1` [CBK281500] was 78.2203.
Regarding `Cc1cc(CNC(=O)C2(c3ccccc3)CCCC2)no1` [CBK149518], the “% of control remaining” value is 94.8815.
Turning to `Nc1ncc2ncn([C@H]3C[C@@H](O)[C@@H](CO)O3)c2n1` [CBK201303], the “% of control remaining” value is listed as 98.5294.
As for `CCN1C(=O)C2(CC(=O)N(CCCCC(C)C)C2=O)c2cc(C)ccc21` (stereo not drawn) [CBK075173], the “% of control remaining” value is listed as 95.7169.
Consider `O=C(COc1ccc(F)cc1)N1CCCC1c1cccc(Cc2ccccc2)n1` (stereo not drawn) [CBK286214], for which the “% of control remaining” value came to 77.434.
The result for `CS(=O)(=O)c1ccc(-c2nc(N)cc3ccccc23)cc1` [CBK085724] reads 84.4839; that for `Cc1cccc(C)c1OCC(=O)Nc1ccccc1C(=O)N1CCOCC1` [CBK270096], 92.7458; that for `CCOc1cccc(-c2cncc(N[C@H](C)c3ccccc3)n2)c1` [CBK066042], 88.5991.
The result for `CC(Oc1ccc(Cl)cc1Cl)C(=O)Nc1sc2c(c1C(N)=O)CCCCCC2` (stereo not drawn) [CBK265394] reads 112.293; that for `CCOC(=O)C1CSCCN1C(=O)c1cnn(-c2ccc(Br)cc2)c1C` (stereo not drawn) [CBK304550], 33.1306; that for `Cc1noc(C)c1CCC(=O)N1CC[C@H]2NC(=O)COc3ccccc3C/C=C/C[C@H]2C1` [CBK292115], 99.4951.
`COc1ccc(NC(=O)C(OC)c2ccccc2)cc1Cl` (stereo not drawn) [CBK264098]: the “% of control remaining” value is recorded as 109.606.
The result for `O=C1S/C(=C\c2ccc(O)c([N+](=O)[O-])c2)C(=O)N1Cc1ccc(Cl)cc1` [CBK102929] reads 91.0361.
The value for `Nc1ncc(-c2cccc3cccnc23)nc1NC1CCCCC1` [CBK063613] was 77.7542; that for `Cc1cccc(NC(=S)NCCc2ccc(S(N)(=O)=O)cc2)c1C` [CBK264889] was 109.073.
The value for `O=C(CSCc1ccc([N+](=O)[O-])cc1)Nc1c[nH]c(=O)[nH]c1=O` [CBK268549] was 103.61; that for `Cn1nc([N+](=O)[O-])nc1OCc1nc2ccccc2n1C` [CBK265247] was 85.7292.
On to `COc1cc(-c2nccnc2N[C@@H](CO)C(C)C)cc(OC)c1OC` [CBK038023], for which the “% of control remaining” value was 110.556.
`COc1ccc(C)cc1-n1ccc(C(=O)NCC2(C)CCCS2)n1` (stereo not drawn) [CBK305355]: the “% of control remaining” value is reported as 87.7787.
The value for `COc1nccnc1N1CCN(Cc2ccccc2)CC1` [CBK084210] was 97.5771; that for `O=C(COc1ccc(Cl)cc1Br)N1CCCCCC1` [CBK058661] was 35.6854.
The value for `O=C(Nc1cccnc1)c1ccc(NC(=O)C2OCCc3ccccc32)cc1` (stereo not drawn) [CBK269963] was 33.3858.
As to `O=C(O)c1ccc2c(c1)C(=O)N(c1ccc(-c3ccc(N4C(=O)c5ccc(C(=O)O)cc5C4=O)cc3)cc1)C2=O` [CBK261187], the “% of control remaining” value worked out at 96.5575.
The result for `CCC(CNC(=O)c1ccoc1C)N1CCCC1` (stereo not drawn) [CBK304798] reads 108.873; that for `CC1CCCCN1S(=O)(=O)c1ccc(NC(=O)CCn2cnc3ccccc3c2=O)cc1` (stereo not drawn) [CBK268495], 107.677.
Regarding `CCOC(=O)C(NC(=O)c1cc[nH]n1)c1cccc(C)c1C` (stereo not drawn) [CBK304131], the “% of control remaining” value came to 73.604.
As for `O=C(NCc1ccccn1)c1cnn2c(C(F)(F)F)cc(-c3cccs3)nc12` [CBK268195], the “% of control remaining” value amounted to 105.188.
Turning to `CCOc1cccc(NC(=O)/C(C#N)=C\c2cc(C)n(-c3cccc(C(=O)O)c3)c2C)c1` [CBK263186], the “% of control remaining” value was 135.073.
The result for `COc1ccccc1Cn1nc2nnc(-c3ccc(F)cc3)c(-c3ccc(F)cc3)n2c1=O` [CBK286184] reads 88.9187; that for `Cn1c2ccccc2c2nnc(SCc3ccc4nonc4c3)nc21` [CBK267515], 96.1945; that for `Cc1nc2c(c(=O)[nH]1)CC[C@@H]1CN(C(=O)C3CCCCC3)C[C@H]21` [CBK284407], 76.6053.
Take `Nc1ncc(-c2ccc(C(=O)N3CCOCC3)cc2)cc1C(=O)Nc1ccncc1` [CBK160202]: the “% of control remaining” value is reported as 92.5837.
The result for `C/C(=N\N1CCN(Cc2cccc3ccccc23)CC1)c1ccncc1` [CBK263574] reads 81.0432; that for `Cc1scnc1CN1CCn2nc(C(O)Cc3ccccc3)cc2C1` (stereo not drawn) [CBK307612], 89.1848; that for `CCN(CC)C(=O)c1cn(CCC#N)nc1-c1cccc(OC)c1` [CBK305941], 44.4734.
For `CC1CC(=O)c2cn/c(=N\c3ccccc3)[nH]c2C1` (stereo not drawn) [CBK287884], the “% of control remaining” value turned out to be 85.0841.
The result for `O=C(O)C1C2CC(c3ccccc3)C(C2)C1C(=O)O` (stereo not drawn) [CBK287147] reads 89.7576; that for `COc1ccc([C@@]23CC[C@@H](NC(=O)Nc4ccc(F)c(F)c4)C[C@@H]2N(C)CC3)cc1C#N` [CBK067952T], 62.0788.
The result for `CCn1c2ccccc2c2cc(/C=N/N3CCN(c4ccccc4OC)CC3)ccc21` [CBK101168] reads 101.534; that for `OCc1ccc(CN2Cc3nc[nH]c3C[C@H]2c2nc(Cc3ccccc3)no2)o1` [CBK288955], 119.097.
In the case of `Cn1nccc1CNc1ncn(CC(=O)N2CCCCCC2)n1` [CBK306454], the “% of control remaining” value worked out at 47.8524.
In the case of `CC1(C)Cc2c(ccc3ccccc23)C(CCN2CCCCC2)=N1` [CBK261746], the “% of control remaining” value was 69.7983.
The value for `CCC1CCC2(CC1)NC(=O)N(Cc1cc(-c3ccccc3)on1)C2=O` (stereo not drawn) [CBK294977] was 48.5935; that for `O=c1[nH]c2cc(Cl)c(Br)nc2[nH]1` [CBK026531] was 45.6863; that for `O=C(NC1CCOCC1)c1n[nH]c2c1CCC2` [CBK174626] was 62.4078.
With `CN(C(=O)CN1CCN(c2cc(-c3cccc([N+](=O)[O-])c3)ncn2)CC1)c1ccccc1` [CBK091137], the “% of control remaining” value came out at 91.2848.
The value for `CCCS(=O)(=O)N1CCN(C(=O)c2cccnc2)CC1` [CBK264239] was 129.788; that for `O=C(Cn1c(NCCO)nc2ccccc21)c1ccco1` [CBK264127B] was 97.2177; that for `COc1ccccc1C1(O)CCCC2CN(C(C)=O)CC21` (stereo not drawn) [CBK283134] was 102.707.
For the compound `COc1ccc(Cl)cc1S(=O)(=O)N1CCCC(C(=O)NCc2ccccn2)C1` (stereo not drawn) [CBK269761], the “% of control remaining” value is recorded as 97.7743.
In the case of `CC(=O)c1c(C)[nH]c(C(=O)N2CCN(C3CCN(C)CC3)CC2)c1C` [CBK149098], the “% of control remaining” value is on record as 102.477.
The value for `CCOC(=O)c1cccnc1-c1cncnc1` [CBK149236] was 75.3649.
The value for `CNC(=O)c1cccnc1N1CCN(CCCC(c2ccc(F)cc2)c2ccc(F)cc2)CC1` [CBK025309C] was 86.5331.
`CCn1cc(C(=O)N2C[C@H](C(=O)OC)[C@@H](c3ccc(F)cc3)C2)cn1` [CBK283719]: the “% of control remaining” value amounted to 56.4624.
The result for `O=C(O)CCc1ccc(-c2cccs2)n1NC(=O)c1sc2ccccc2c1Cl` [CBK264782] reads 106.896.
The value for `FC(F)(F)c1ccnc(Sc2cccc(Cl)c2)n1` [CBK115247] was 75.0671; that for `COc1ccccc1N1CCN(/N=C\c2ccccc2OCC(=O)O)CC1` [CBK263173C] was 115.903.
The value for `CC(=O)Nc1ccc(-c2ccc(C(=O)N3CCC(Sc4ccccc4)CC3)cn2)cc1` [CBK160188] was 78.4394.
Turning to `Cc1c(Cc2ccccc2)c(=O)oc2c(CN3CCCC(C)C3)c(O)ccc12` (stereo not drawn) [CBK266995], the “% of control remaining” value is recorded as 106.233.
In the case of `c1ccc2c(c1)nnn2CNCn1nnc2ccccc21` [CBK261114], the “% of control remaining” value is on record as 103.249.
Take `COc1ccc(Cn2nc(-c3nc(C)no3)c3ccccc32)cc1` [CBK105834]: the “% of control remaining” value is on record as 59.7237.
`CNC(=O)C1(Cc2ccc(-c3cccc(C)c3)cc2)CCN(C(=O)CC(C)C)CC1` [CBK285787]: the “% of control remaining” value stood at 95.7798.
The value for `Cc1cc(C(F)F)n2nc(C(=O)Nc3cccc(S(=O)(=O)N4CCOCC4)c3)nc2n1` [CBK266198] was 101.307; that for `O=C(c1ccccc1)N1C[C@@H](c2ccsc2)[C@@H]2CN(Cc3ccccc3F)CC[C@@H]21` [CBK285612] was 67.7457.
The result for `Cc1ccc([C@]2(O)CC[C@H]3CN(Cc4cccc(F)c4F)C[C@H]32)nc1` [CBK283088] reads 76.1769; that for `CC(=O)Nc1ccc(S(=O)(=O)N2CCN(c3ccc([N+](=O)[O-])c(NC4C5CC6CC(C5)CC4C6)c3)CC2)cc1` (stereo not drawn) [CBK268802], 89.2246; that for `COc1ccc(S(=O)(=O)N2CCC(C(=O)O)CC2)cc1C(=O)O` [CBK092181], 109.816.
Regarding `CC(=O)N1CCN(c2ccc(Oc3ncc(C(F)(F)F)cc3Cl)cc2)CC1` [CBK161650], the “% of control remaining” value is on record as 96.8651.
The result for `Cc1c(C(N)=O)sc2nc(C(F)(F)F)cc(N)c12` [CBK061693] reads 98.0015.

These data come from article PMC12040169 (PLOS Biology, 2025).
